Data published in the supplement of paper PMC3334620.
The full ranking holds about 33,000 sequences; the median of “E-score (-0.5 to 0.5)” is about -0.016, and the highest 2% start at about 0.32. Some of the results follow.

These sequences were tested against T1, Stp1 (UniProt B3LFK1) (assay: PBM E-score (8-mer binding enrichment) (E-score (-0.5 to 0.5)); higher = stronger / more preferred TF binding; most listed sequences are background and not binding sites). Conditions: protein concentration: 200 nM; construct: GST-full length.
T1 sequence: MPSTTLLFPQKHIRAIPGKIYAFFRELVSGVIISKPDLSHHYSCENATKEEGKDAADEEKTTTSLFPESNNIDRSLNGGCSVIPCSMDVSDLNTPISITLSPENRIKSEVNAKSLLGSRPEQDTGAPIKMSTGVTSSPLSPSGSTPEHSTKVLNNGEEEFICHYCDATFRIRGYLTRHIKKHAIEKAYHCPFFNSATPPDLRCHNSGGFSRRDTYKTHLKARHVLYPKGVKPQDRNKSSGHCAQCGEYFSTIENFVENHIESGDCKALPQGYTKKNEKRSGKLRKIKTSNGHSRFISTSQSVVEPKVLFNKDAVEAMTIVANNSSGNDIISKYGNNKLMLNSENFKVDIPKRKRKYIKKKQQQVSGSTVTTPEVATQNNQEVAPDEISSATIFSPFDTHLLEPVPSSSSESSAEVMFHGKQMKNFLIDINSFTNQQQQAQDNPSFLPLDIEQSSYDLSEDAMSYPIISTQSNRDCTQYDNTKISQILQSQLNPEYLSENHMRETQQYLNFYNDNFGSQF
Summary of the method: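 E-scores (a modified Wilcoxon-Mann-Whitney statistic) were assigned by the Universal PBM Analysis Suite to every ungapped eight-base word pooled with its reverse complement. The input came from universal all-10-mer Agilent arrays made double-stranded by primer extension and probed with GST-tagged yeast transcription factors at about 100-200 nM. Fluorescent anti-GST detected bound protein, and masliner normalised the scans.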

Sequence	PBM E-score
AGCGAGTA	0.0239
ATACCTAA	0.0611
ATACGCCG	0.381
GGGTTTAC	-0.0641
TATAAATA	0.198
CATTAGAC	-0.0775
GAGGGGTA	-0.311
GCTCATGA	-0.126
AGAGCGAA	0.0162
ACAACGCA	0.0219
CCACTAAA	-0.0975
AGTTGGAG	-0.105
GCAACCAC	-0.14
ACGTTGCC	0.1
ACCCATTG	-0.281
CTGGTCTC	-0.282
GAACTGAC	0.0623
GATTGGAC	-0.104
TAATCCCA	-0.219
ATCCGTCG	0.0183
CCTATCTA	-0.0488
ATGGAATA	0.209
AAAACCAG	0.18
CCTAGAAC	0.0102
CGCCTCAG	0.289

Sequence	PBM E-score
ATTTGATC	0.0111
AATACCCC	-0.24
CAACGCGC	0.272
AGCAACAA	0.173
ACGGTGAT	-0.0253
ATATTGCG	0.0775
GTCCTCGA	-0.0817
ACTCATTA	0.165
ACAGAGCA	0.0782
AATATCTC	0.0625
GTCCGGAA	0.0408
ACTAGGCA	-0.0294
CATCGTGG	-0.11
ACCGTGGG	-0.27
TGCAGTAA	-0.092
ATTGGGTG	-0.114
ATTTTGCC	0.218
CACGCACG	0.203
ACAGAGAT	0.0572
CGTAGTGA	-0.00456
ACGGCAGC	0.406
ACATACTC	-0.19
AATGTAGC	-0.0806
GACACCAC	-0.11
AGATAAAT	0.0658

Sequence	PBM E-score
AGGAGGGA	-0.203
GTTTCAAA	0.0493
AGGTCGCA	-0.172
GCAGCTCA	-0.188
TGATAACA	0.103
CAGCGATC	-0.127
ACTGCGTG	-0.14
GCAATCTA	-0.0152
TAAAGAGA	0.0051
GTCACTCA	0.02
CAGGCGGA	0.0994
ATTTGCAA	0.176
ATCACTAC	-0.158
TGTCTTAA	0.0569
AGTTCGGA	0.055
AAAATCAA	0.149
AACACCGC	-0.0137
GGAACGCC	-0.0222
ACGGCCTG	0.0977
CCACCTGA	-0.00421
AAAACCTA	0.0597
CCGTACCC	0.245
CGCCGCCA	0.154
ACCTCTAT	-0.00323
GTTTAATA	0.173

Sequence	PBM E-score
AAGCCGAA	0.116
ACTGACTA	-0.176
TACCTATA	-0.166
TCCGGACA	-0.0452
AATCCAAG	0.038
AAGTAAAA	0.12
AAGTGTCA	-0.295
GCACACAA	0.122
ACTCGGCA	0.324
GCCACTAA	-0.0784
GCTCGTAA	-0.0259
AACGCTGC	-0.0387
ATGATACC	0.146
GTGCTCCA	-0.122
ACAAAAGC	0.158
AGGGAGAT	-0.266
AAGTGAAC	-0.117
CAAATGTG	0.186
CGGAGACC	-0.203
CTGACAGA	0.0374
GCCTAACA	0.0897
GTACCTTA	0.0424
CAATGCAA	0.0668
AACCACAC	0.0193
TATCAATA	0.0831

Sequence	PBM E-score
AGTAAAAT	0.156
ATTGGAAA	0.204
AAGCATCC	-0.166
CGGGCTCA	-0.0951
AGCCGCCA	-0.122
TCACGGAA	0.173
CTATTAAG	-0.0256
CGTCAGAG	-0.0954
GCCGTAGC	0.444
AGGCGATA	0.0637
GTGTTACA	-0.129
GACGACAA	0.128
AAACGCTA	-0.129
CAATACAC	0.0863
ACTGTGCT	-0.123
AGACCCGG	-0.0534
CGGTGAGA	0.0251
ACCCGAGA	-0.282
GCACCACC	0.027
CCTACAAA	0.146
GGGCCTAC	-0.318
CACTGGCG	0.0303
ATGTCCCG	-0.254
AACCATTC	0.046
ACATCGCC	0.0811

Sequence	PBM E-score
CAATGCCA	0.0614
CGTTCTTA	0.0247
AATCAACT	0.224
CAAATAAC	0.258
CGCCATAC	0.194
AGTTTTAT	0.231
CCGAAGTA	-0.0196
TAGAAGAA	-0.0793
AAAGGACG	-0.0453
AAAAATTG	0.096
TGACTGCA	-0.283
CTGGAGAC	0.0452
CGTACGCA	0.192
TCCTGCAA	-0.229
GGGGCGAC	-0.0956
CGACATAG	-0.148
TGGCATAA	0.274
ATCATCCA	-0.0547
AACCGTCT	-0.0654
TGGCCTAA	-0.0945
ACTGCCTC	0.0766
CAAGACCG	-0.132
CTCTGAAG	-0.123
CATGAGAC	-0.0712
ATATAAAG	0.117

Sequence	PBM E-score
GGCGCATA	0.244
TGCATCAA	0.141
GTGAGCTA	-0.0636
CCCACTAG	-0.383
AAAGCCAC	0.123
AGGCCCGC	-0.0273
GTCAAAAC	0.134
GATAGTAA	0.102
TATGTACA	-0.0325
CACATCGC	-0.115
AAAACGTC	-0.0214
CTCGACTA	-0.233
CGATGGCC	-0.0335
AGGGGCCA	-0.282
AGTAATAG	0.0854
TCAGATGA	0.159
CGTAAGCC	-0.0443
GTAGGTGA	-0.121
AACTCAAA	0.111
AAGCGACG	-0.164
TACACGGA	0.259
GCCACAGC	0.0628
ATCTGTAG	-0.13
GCAGTACC	0.111
CAGGGCAC	0.355

Sequence	PBM E-score
GGTTTCGA	0.199
ATGGGGAG	-0.249
AAAAAGCC	0.34
AGATTGTA	0.112
TATCTAAA	0.102
TACGGAGA	0.0756
CTGTACAA	-0.0346
TGACGAAA	0.113
GATCGCGA	0.135
GCGCTCTA	-0.0052
TAACGCGA	-0.0792
CCGGTAAG	-0.032
CAGAAGCA	-0.0675
ATACTAAC	0.151
ACGGCTCA	0.403
ACGTGCTC	-0.0122
AGCGAGAA	-0.108
ACGTATCG	0.0633
CGCAGTGC	0.00839
TCAACAGA	-0.0515
ACCGTGCC	0.313
CTTATTAC	0.144
CGGAATTC	-0.0276
CACGTAGG	-0.104
CCCGGGCG	-0.104

Sequence	PBM E-score
ACGTACTG	-0.0415
TCCTGTAA	0.0686
ACACCTGC	0.02
ATGTATTC	-0.0744
ACAATTCA	0.103
CTGCGAGA	-0.298
ACCTACTG	-0.128
ACTGCTGG	-0.317
CGTGCACC	-0.112
GATCACCC	-0.201
CTACCCAC	-0.286
ATACAGCG	0.0219
CTTATAAC	0.0678
ACGAGTAA	0.135
GCTCAGTA	0.0273
AAAGTTTG	0.188
CTCGGCCA	0.0308
ATTTATAC	0.224
AATTGGCC	-0.249
GCCTTCCA	0.0847
CCAAACGG	0.153
ACCTTATA	-0.042
ACCTAGAA	-0.0377
TATCATGA	-0.114
GACCCGAC	-0.292

Sequence	PBM E-score
CGTTACTC	-0.0431
CCGGTTAA	-0.0419
CGCCCCCC	-0.266
GGGGAGAA	-0.229
CGCAGGTA	-0.0193
AGCCGGAC	0.194
GAACAGAA	0.1
CCTTAAGA	-0.0596
ATTCCCTC	-0.185
AAGCGGGT	-0.0561
AACCAGAG	-0.0242
CAAGTGTC	-0.128
GCACGACC	-0.189
CCAATGTA	-0.241
GTAAAGTA	0.0702
GACGGCAC	0.453
AGTTGGAT	-0.0612
CGACATAC	0.232
AGTTACAC	0.178
GCAGGATA	-0.19
CAGAATCG	0.0469
ACCTCCTA	-0.108
ATATAGAG	0.152
CCGGTTGC	-0.0442
ACACCGTG	0.1

Sequence	PBM E-score
AATGGCGA	0.167
CGTTGCAG	-0.078
CCTAATAG	-0.0134
ACATTAGA	-0.0347
GGTGTGAA	0.0905
CACACATG	-0.118
GAGAGCGA	-0.206
CCTTTGCC	-0.0194
AATTCGTA	0.158
GTGCTTTA	0.0571
CCACTGCA	0.0532
CAAGATGG	-0.115
CCTAGCTC	-0.268
TAATCGAA	0.182
AGACCCTG	-0.304
AACATGCA	0.0182
GGTTTTAA	0.233
CCAACCCG	0.0861
GGCTTGAA	-0.0921
AGGGGTTA	-0.381
GCCTTCAC	0.125
CACTTTGG	-0.0743
TCGATAAA	0.222
CATCTAAG	0.04
AGACCTAC	-0.157

Sequence	PBM E-score
GCGAAAAA	0.0896
AGACGGCC	0.121
CAAATTGG	0.162
AAATGGGA	-0.175
CGTGGATC	-0.0246
GATGGCGC	0.145
GTCACACA	-0.148
ACTACTAT	0.231
ATAGGCAT	0.149
CTGTCAAA	0.0845
CGCCTGGA	-0.156
GAGCTCTA	-0.101
CTTGAGCC	0.116
AATCAACA	0.2
ATCGGGCC	-0.199
GCGAGTCC	-0.222
CTGTCGCC	0.132
TAATTCAA	0.13
GACTCGAA	-0.148
ACGTAAGA	0.022
AGTGGAAA	-0.0688
AAGCAGAC	-0.0715
TCTAGACA	0.0537
CTGAAAGA	0.185
CCGTGCGA	0.415

Sequence	PBM E-score
CTTCATAC	0.0869
ATCAACAC	0.118
ACATCTAG	-0.0323
AACCGATA	-0.0489
TATCTCAA	0.127
AACTCCTG	-0.0713
GATTTGCA	0.0691
ACCATGGC	0.192
AAAAGATA	0.0925
CCATCCCG	-0.128
CTTATCCA	-0.0119
GCCTTCGA	0.00438
CGAGACCG	-0.155
GGCAATAC	0.281
ACGTCCGG	-0.184
AGCATCAA	0.164
AGTTAGGC	0.0668
AACGTCAT	-0.0499
CTCGCTGC	0.127
AGTCCCGA	-0.333
AAGACCGT	-0.147
GTCCAACA	-0.0759
CTTATGGC	0.0174
TAACTCCA	-0.136
GCGCCTCC	0.293

Sequence	PBM E-score
CTAGCCGA	-0.0941
ACGCTGAA	-0.0121
CACTTGTC	-0.0163
GGGCTTTA	-0.0736
GTCATCAA	-0.102
AACTCAAC	-0.0044
GCCAGGCC	-0.294
CAAATGAC	-0.06
AATAGCAC	-0.165
GCGTAGTA	-0.101
ATTTTCGC	0.26
CTGGCACA	-0.187
ATGGGATG	-0.138
ACCTAAGG	-0.112
ATTTAACC	-0.101
GTTTAGCA	-0.0167
AGCAAACG	-0.0548
ATGAGCGA	0.0356
TCTACAGA	0.0682
